Laboratory results reported in patent EP1214397B1, “METHOD FOR THE SELECTIVE PROTECTION OF PROLIFERATING NORMAL CELLS AND THE SELECTIVE ERADICATION OF TUMOR CELLS HAVING AN INACTIVE P53 PATHWAY” (UNIVERSITA' DEGLI STUDI DI ROMA "LA SAPIENZA", priority 1999, dated 2001).
Where “and” joins values, the source holds several entries; their conditions need not be identical. Equal entries are not always repeated.

What was measured:
C3H 10T1/2(v-src/v-myc) = assay: Colony forming assay, interference with 3FT toxic effects on tumor cells (Example 6); assay type: cell-based, mouse; conditions: 5×10^2 cell/60mm; 400 nM CD or 3 µM CB T0-T84; 30 µM 3FT T24-T72; untreated 111
Description: In order to verify any possible interference between CD and 3FT actions on tumor cells, a series of colony forming assays has been carried out on C3H 10T1/2(v-src/v-myc).
The cells have been therefore plated on 60mm plates at a 5×10^2 cell/60mm density, at the culture conditions described in example 3, and the initial time of 12 hours have been subjected to the following treatments.
After the above administrations, cells were treated as described in example 3.

L cells = assay: Colony formation assay, monoculture (Example 4); assay type: cell-based; conditions: 5×10^2 cells, 400 nM CD T0-T84, 40 µM 3FT T24-T72
From the text: (§1) In order to quantify the effects of the combined CD/3FT use of the above example 3, the first, second and third assay series described in example 4 has been carried out on monocultures at a cell density allowing countable colonies.
(§2) The culture conditions, compounds concentrations, and treatments are the same described in example 3, with the exception of the cell system used have been for the first assay series a monoculture of C3H 10T1/2 cells at the clonal densities of 1×10^3, 5×10^3 and 1×10^4, for the second assay series a monoculture of C3H 10T1/2v-src/v-myc cells at the clonal densities of 5×10^2, 1×10^3 and 5×10^3, and for the third assay series a monoculture of L cells at the clonal densities of 5×10^2, 1×10^3 and 5×10^3.

C3H10T1/2v-src/v-myc = assay: Focus-forming assay, culture of tumor cells alone (Examples 3, 9); assay type: cell-based, mouse; conditions: C3H10T1/2 v-src/v-myc alone, 5×10^2 cells per plate; percentage of treated with respect to untreated (=100); 400 nM CD T0-T84; class B drug T24-T72 (40 µM 3FT, 80 µM 2ClAd, 40µM Ara C)
[1] = test system: mixed culture of C3H10T1/2 and C3H10T1/2v-src/v-myc; assay: Focus-forming assay, mixed culture of normal and tumor cells (Examples 3, 9); conditions: for requested time for normal cell monolayer reforming: after combined treatment with CD (Example 9); for proliferation restart time: normal cell monolayer reforming after combined treatment with CD (description); for normal cell monolayer / number of transformation foci: mixed culture, 400 nM CD T0-T84, class B drug T24-T72 (40 µM 3FT, 80 µM 2ClAd, 40µM Ara C); for normal cell monolayer: first entry of the cell (normal cells); for number of transformation foci: second entry of the cell (tumor cells), percentage of treated with respect to untreated (=100)
C3H10T1/2 [2] = assay: Colony formation assay, monoculture (Example 4; Table 9); assay type: cell-based, mouse
From the text: as §1, §2
(§3) The results of the assay series described in example 4 above carried out using dihydrocytochalasin B (referred to as H2CB in the table) and 3FT is reported in the following table 9.

C3H 10T1/2v-src/v-myc = assay: as above; assay type: cell-based, mouse; conditions: C3H10T1/2 v-src/v-myc
From the text: as §1, §2, §3

tumor cells in culture = assay: Dose/response: concentration eradicating proliferating / tumor cells (CBCT); assay type: cell-based; conditions: for CBCT, minimum functional concentration required to eradicate tumor cells in culture: standard conditions
Description: Concerning the concentration of class B compound (CBCT), it is comprised in a range that should be calculated as a function of the CT, the target tumor cell type and the half-life in culture of the administered class B compound.
In particular, for the trifluorothymidine this concentration is greater than or equal to 40 µM, in particular comprised in the range 10µM - 800 µM, preferably 50 µM; for the cytarabine, this concentration is generally greater than or equal to 40 µM, in particular comprised in the range 40 µM - 600 µM, preferably 40 µM; for the 6-thioguanine, this concentration is generally greater than or equal to 50 µM, in particular a concentration comprised in the range 50 µM - 600 µM, preferably 100 µM.
In fact, by virtue of the protective action of the class A compound on the normal cells, such concentration may be increased up to 10-20 fold the mentioned minimum concentration thereof.

C3H10T1/2 [3] = assay: Focus-forming assay, culture of normal cells alone (Examples 3, 9); assay type: cell-based, mouse; conditions: C3H10T1/2 alone, 10^4 cells per plate; 400 nM CD T0-T84; class B drug T24-T72 (40 µM 3FT, 80 µM 2ClAd, 40µM Ara C); Confluent = completely formed monolayer
[4] = test system: C3H10T1/2 cells reversibly arrested in G0/G1 by growth factor deprivation; conditions: mouse, 48 h
Description: The choice of carrying out the assays on cells arrested in the G0/G1 phase by growth factor deprivation rather than on cells treated with cytochalasin D or analogues thereof was made for ease of assaying.
In a first assay 40µM 3FT for 48 h, in a second assay Ara C 40µM for 48 h, in a third assay 80µM 2ClAd for 48 h, in a fourth assay 100µM 6 thioguanine (6Thg) for 48 h, in a fifth assay 1µg/ml Doxorubicine (Doxo) for 48 h have been administered on the G0/G1 arrested C3H10T1/2 cells.
The above concentrations are the minimum for killing proliferating cells calculated on the basis of cell cycle duration.
After release from drug treatment, cells were washed 2x and left in low serum for other 12 h, to allow washing of residual drugs under non-proliferating conditions.
After the 24 h period in low serum, proliferation medium (DMEM +10% FCS), supplemented with 20µM BrdU in order to mark the DNA-synthesizing cells, has been additioned to the cell culture. After a 24-h stimulation, the cells have been fixed and processed as reported in Grossi et al. 1991 (18). The percentage of DNA-synthesizing cells in the 24-h labeling period has been detected by immunofluorescence, as reported in Grossi et al. 1991 (18).
The culture and assay conditions are those described in example 10, except for the pharmacological treatment, which in the present assay series consists of the following.

[5] = test system: C3H10T1/2v-src/v-myc cells; assay type: cell-based, mouse
From the text: In order to verify a possible interference on 3FT uptake by tumor cells, the compounds mentioned in example 7 have been assayed on C3H10T1/2v-src/v-myc cells, measuring the uptake of tritiated thymidine. It is well known in fact that the uptake mechanism of the latter and that of 3FT (and generally of antimetabolites) are the same (6).
Cells have been plated in a 24-well plate, with a 5x10^4 cells/well and the assays have been carried out under standard culture conditions, as described in example 1.
In a first assay 3000 nM CB for 24 h, in a second assay 400 nM CD for 24 h, in a third assays 650 nM Latrunculin B for 24 h, in a fourth assay 700 nM Jasplakinolide for 24 h and in a fifth assay 100 nM Condramide for 24 h, have been administered on the C3H10T1/2v-src/v-myc.
After said administrations, a 4µCi/ml tritiated Thymidine uptake has been carried out for 5 h for each assay, the above mentioned compounds being still present. Cells have been therefore washed 2x with PBS, extracted with 5% cold trichloroacetic acid and subsequently NaOH-lysed.
The various samples once additioned with scintillation liquid, have been analyzed in a β-counter. The emission values, normalized for the amount of proteins in each sample (quantified by Lowry method) are expressed in count values for min/microgram protein in column 3. As controls there have been considered: • a first C3H10T1/2v-src/v-myc cell culture let free to proliferate for the overall assay (12 h + 24 h + 5 h) the radioactivity thereof being determined at the β-counter. • a second C3H10T1/2v-src-myc cell culture let free to proliferate for the initial 12 h and for the pharmacological treatment assay (12 h + 24 h), then subjected to the uptake of 4µCi/ml tritiated thymidine for 5 h and subsequently subjected to uptake determination at the β-counter.

[6] = test system: control human lung fibroblasts (HF LXSN); assay: Nuclei number state after cytochalasin D (Example 2); assay type: cell-based; conditions: 400 nM CD for 72 h
Description: (§4) Each cell culture was plated on 35mm plates at a 1×10^4cells/plate density, under the following conditions considered herein as standard conditions. Cells were grown on a plastic substrate (Falcon-BD), in a culture medium made of Dulbecco's modified Eagle's Medium supplemented with 2mM L-glutamine, antibiotics, 10% fetal bovine serum, at 37°C with 5% CO2 and 90% humidity. The following assays have been therefore carried out.
(§5) In an initial time of 12 hours c.ca (step common also to the other assays herein reported) cells were allowed to grow up, but within a density allowing their proliferation, thus ensuring the utmost reliability of the assay result, that otherwise could be altered by cells arrested for reasons other than compound administration. After this first step the following administrations have been carried out.
(§6) E6 is in fact an oncogene, the product thereof being capable of sequestering and inhibiting the p53 function, whereas E7 is another oncogene, the product thereof being capable of sequestering the Rb function. This assay series accordingly allows in fact to extend also to human cells the growth arrest, at the binucleate stage, by CD, as due to an active p53 pathway in normal cells, and at the same time it confirms the non-implication of Rb therein.
(§7) After the initial time of 12 h c.ca (see above) the following assays have been in particular carried out.
In a first assay series 400 nM CD for 72 h (T0-T72) or 0.11% DMSO for 72 h (T0-T72) as a control thereof, have been administered to control human lung fibroblasts (HF LXSN).

[7] = test system: human lung fibroblasts transformed with E6 (HF E6); assay: as above; assay type: cell-based; conditions: 400 nM CD for 72 h
Description: as §4, §5, §6, §7
In a second assay series 400 nM CD for 72 h (T0-T72) and 0.11% DMSO for 72 h (T0-T72) as a control thereof, have been administered to human lung fibroblasts transformed with E6 (HF E6).

[8] = C3H10T1/2, 1×10^3 cells, class A drug T0-T84 (400 nM CD or H2CB), 40 µM 3FT T24-T72
[9] = 5×10^2 cells, class A drug T0-T84 (400 nM CD or H2CB), 40 µM 3FT T24-T72

O=c1[nH]c(=O)n([C@H]2C[C@H](O)[C@@H](CO)O2)cc1C(F)(F)F [3FT, 2'-deoxy-5-trifluoromethyluridine]
Colonies (C3H 10T1/2(v-src/v-myc)): 2 | number of colonies (L cells): 0 | number of transformation foci (C3H10T1/2v-src/v-myc): complete death | requested time for normal cell monolayer reforming [1]: 5 days | proliferation restart time [1]: ~7 days | number of colonies (C3H10T1/2 [2]; [8]): 0 | number of colonies (C3H10T1/2 [2]; C3H10T1/2, 1×10^4 cells, class A drug T0-T84, 40 µM 3FT T24-T72): 0 | number of colonies (C3H10T1/2 [2]; C3H10T1/2, 5×10^3 cells, class A drug T0-T84, 40 µM 3FT T24-T72): 0 | number of colonies (C3H 10T1/2v-src/v-myc; 1×10^3 cells, class A drug T0-T84, 40 µM 3FT T24-T72): 0 | number of colonies (C3H 10T1/2v-src/v-myc; [9]): 0 | number of colonies (C3H 10T1/2v-src/v-myc; 5×10^3 cells, class A drug T0-T84, 40 µM 3FT T24-T72): 0 | CBCT, minimum functional concentration required to eradicate tumor cells in culture (tumor cells in culture): 50 µM

Nc1ccn([C@@H]2O[C@H](CO)[C@@H](O)[C@@H]2O)c(=O)n1 [Ara C, cytarabine]
normal cell monolayer (C3H10T1/2 [3]): 0 | number of transformation foci (C3H10T1/2v-src/v-myc): 0 | requested time for normal cell monolayer reforming [1]: 5 days | normal cell monolayer [1]: 0 0 | number of transformation foci [1]: 0 0 | proliferation restart time [1]: ~7 days | CBCT, minimum functional concentration required to eradicate tumor cells in culture (tumor cells in culture): 40 µM | minimum concentration for killing at least 90% of the proliferating cells (tumor cells in culture; within the time of the combined treatment (48 h)): 40 µM | dosage increase that begins to entail a relevant toxicity [4]: 6 fold

C=C1[C@@H](C)[C@H]2[C@H](Cc3ccccc3)NC(=O)[C@]23[C@H](OC(C)=O)/C=C/[C@@](C)(O)C(=O)[C@@H](C)C/C=C/[C@H]3[C@@H]1O [cytochalasin D]
CPM/µg prot. ([5]; 4µCi/ml Thymidine (H^3) 5 h after 24 h drug, concentration (nM) printed with the drug, control 505): 391 CPM/µg prot. | tritiated thymidine uptake, emission values ([5]; 4µCi/ml tritiated thymidine 5 h after 24 h drug (3000 nM CB, 400 nM CD, 650 nM Latrunculin B, 700 nM Jasplakinolide, 100 nM Condramide), control 505 cpm/µg): 391 cpm/µg | %>4N ([6]; >4 nuclei cells): 0% | %2N ([6]; binucleate cells): 57% | %1N ([6]; mononucleate cells): 40% | %3-4N ([6]; tri-tetranucleate cells): 3% | normal cell monolayer (C3H10T1/2 [3]): Confluent | normal cell monolayer [1]: Confluent | number of transformation foci [1]: slight decrease | number of transformation foci ([1]; listed as CD): 30 and 40 | %>4N ([7]; >4 nuclei cells): 16% | %2N ([7]; binucleate cells): 34% | %1N ([7]; mononucleate cells): 12% | %3-4N ([7]; tri-tetranucleate cells): 38% | number of colonies (C3H10T1/2 [2]; [8]): 49 | number of colonies (C3H 10T1/2v-src/v-myc; [9]): 18
